According to the supplement of paper PMC12217912:
This is one part of the list. The full chains were built here from the parent and the listed change. Inactive controls read about 0.05.

B1: TEV protease; numbered along this chain (parent)
chain: MGESLFKGPRDYNPISSSICHLTNESDGHTTSLYGIGFGPFIITNKHLFRRNNGTLVVQSLHGVFKVKDTTTLQQHLVDGRDMIIIRMPKDFPPFPQKLKFREPQREERICLVTTNFQTKSMSSMVSDTSCTFPSGDGIFWKHWIQTKDGQCGSPLVSTRDGFIVGIHSASNFTNTNNYFTSVPKNFMELLTNQEAQQWVSGWRLNADSVLWGGHKVFMVKPEEPFQPVKEATQL

Variants of: B1
Test: raw area under fraction-flipped curve 0-4 h after induction (AUC4h, not background-subtracted), DNA-recorder readout of cleavage of the substrate (dimensionless); higher = more cleavage of the substrate by the protease variant
Conditions: temperature: 34 °C; time window: 0-4 h after rhamnose induction
Description: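 In vivo DNA recorder in E. coli TOP10(DE3) ΔrhaA at 34 °C. Each TEVp single-site mutant (parent TEVp 0) is paired with a single-site variant of the 7-mer TEVs (canonical ENLYFQ|S). The substrate sits between flexible linkers in a Bxb1-sfGFP-TEVs-SsrA fusion, so cleavage stabilises Bxb1 and speeds flipping of a recombination array, read by NGS. The value is the raw area under the fraction-flipped curve over 0-4 h after rhamnose induction (AUC4h), with ≥20 reads per time point. It is not background-subtracted; inactive controls average about 0.047.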
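Also: Bxb1 expression induced with 0.2% (w/v) L-rhamnose at OD600 near 0.5, cultures sampled hourly, flipped fraction per protease–substrate barcode pair counted by paired-end Illumina sequencing.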

Variant	area with substrate ENAYFQS	area with substrate ENDYFQS	area with substrate ENFYFQS	area with substrate ENGYFQS	area with substrate ENHYFQS	area with substrate ENKYFQS	area with substrate ENMYFQS	area with substrate ENNYFQS	area with substrate ENPYFQS	area with substrate ENQYFQS	area with substrate ENSYFQS	area with substrate ENYYFQS	area with substrate ENEYFQS	area with substrate ENIYFQS	area with substrate ENVYFQS	area with substrate ENRYFQS	area with substrate ENTYFQS	area with substrate ENWYFQS	area with substrate ENCYFQS
I85R	0.0826	0.0527	0.0425	0.0568	0.0547	0.043	0.0754	0.0529	0.0575	0.0537	0.0503	0.06							
L99D	0.0461		0.0658		0.0569	0.0514	0.0656	0.0554	0.0663	0.0574		0.0482	0.0546	0.0502	0.0746				
I86Q	0.0456	0.034	0.0355	0.0384	0.047		0.0358	0.0508	0.0365	0.044	0.0443		0.0456	0.0437	0.0385	0.042	0.0385	0.0339	
R102H	0.0387	0.0434	0.0459	0.0196	0.0544	0.0629	0.0458	0.0529	0.047	0.0483	0.0557	0.0516	0.056	0.054	0.0477	0.0503		0.0643	0.0575
S124R	0.0565	0.0564	0.0664	0.0649	0.0511	0.0639			0.0657	0.0626		0.0558	0.0433	0.0994	0.0884	0.0312	0.0944		0.0585
S124V	0.0698	0.0721	0.0789	0.0627	0.0501	0.0714	0.0919	0.0601	0.0572	0.0628	0.0652	0.0502	0.054		0.051	0.0706			0.0514
S124P	0.0384	0.0652			0.0638			0.0604	0.0572	0.0584	0.0753		0.0674		0.072	0.0613	0.0611		
P134D	0.0681	0.065	0.0534	0.0584		0.0696	0.0552	0.0721	0.0593	0.0622	0.0639	0.052	0.0661	0.0726	0.0593	0.0658		0.0593	0.0575
S123D	0.0612	0.063	0.0675			0.0714		0.0614		0.0626	0.0433		0.0672	0.108	0.0773		0.069		0.0546
K98A	0.0527	0.0582		0.0561		0.102		0.0566	0.0714	0.0594	0.0629		0.0711	0.125	0.0631				0.0691
K98C	0.0687	0.0669		0.0661	0.0625	0.0639	0.0842	0.0648	0.064	0.0583	0.0666	0.0597	0.0624	0.0937	0.0782	0.0621	0.0998	0.0606	0.0686
K98L	0.067	0.0876	0.0596	0.0653			0.0877	0.0664	0.0627	0.0659	0.0664	0.0711	0.0592		0.0609	0.0609	0.0677		0.0639
V113G	0.0734	0.0494		0.0647		0.062				0.0512	0.0573				0.0491	0.0606	0.0572	0.0446	0.0737
T114Y	0.0759		0.0617	0.0721	0.0728					0.0615	0.0615	0.0641	0.0578	0.0966	0.0727		0.0599		0.074
I110G	0.0494			0.0518	0.0588			0.0653		0.0521	0.0557		0.0562	0.0518	0.0524		0.0511		0.0527
I110D	0.047	0.0489	0.0425	0.0591	0.0653	0.0728	0.0389	0.0772	0.052	0.0459	0.0611		0.0524	0.0455		0.0581	0.0766		0.057
I110T	0.0498	0.0642		0.0566	0.0575		0.0608	0.0638	0.0613	0.0591	0.0727	0.0569		0.0766	0.0532	0.0501		0.0508	0.0578
I84E	0.0499	0.06	0.0463	0.0513	0.0475	0.054	0.0083	0.0625	0.0531	0.0486	0.0482	0.0617	0.061	0.0645	0.0446	0.0563	0.0428	0.0498	0.0552
M83D	0.0628	0.0532	0.0696	0.0576	0.0483	0.0539		0.05	0.0583	0.0784	0.0463		0.058		0.055	0.046	0.0327		0.0506
F140G	0.0573	0.046		0.0671	0.0574	0.0768	0.0453			0.0627	0.0486		0.0664	0.0631	0.0629	0.0518	0.0593		0.0695
R109I	0.0635	0.0693	0.0546	0.0356	0.0745		0.0699	0.0665	0.0627	0.0557	0.0594	0.0597	0.066	0.0842	0.0764	0.0549	0.0553	0.0076	0.0604
R109G	0.0614	0.0594	0.0616	0.0657	0.0501	0.0514	0.0805	0.0797	0.0586	0.0699	0.0775		0.0734	0.0971	0.0731		0.0591	0.0513	0.0736
R109W	0.0696	0.0628	0.0644	0.0625	0.0484	0.06	0.0776	0.0584	0.0707	0.0628	0.0584	0.0577	0.0578	0.161	0.0593		0.0831		
P89N	0.0476	0.059		0.0521	0.0387	0.0501	0.0697		0.0615	0.0672	0.0619	0.0593	0.0783	0.1	0.0582	0.0594	0.0662		0.0533
